{
  "source": "paper PMC4336329",
  "about": "(PLoS ONE, 2015)",
  "note": "The campaign covered roughly 310,000 compounds. About 14,000 (4.5%) showed an effect of 50% or more. Effects have a minus sign here. The list shows a part of the results.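 Also: peak tail current of the secondary pulse compared with the same well before compound.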",
  "data": [
    {"biological_target": "human ether-à-go-go-related gene (hERG) potassium channel (human, UniProt Q12809)", "sequence (Q12809 whole entry, looked up)": "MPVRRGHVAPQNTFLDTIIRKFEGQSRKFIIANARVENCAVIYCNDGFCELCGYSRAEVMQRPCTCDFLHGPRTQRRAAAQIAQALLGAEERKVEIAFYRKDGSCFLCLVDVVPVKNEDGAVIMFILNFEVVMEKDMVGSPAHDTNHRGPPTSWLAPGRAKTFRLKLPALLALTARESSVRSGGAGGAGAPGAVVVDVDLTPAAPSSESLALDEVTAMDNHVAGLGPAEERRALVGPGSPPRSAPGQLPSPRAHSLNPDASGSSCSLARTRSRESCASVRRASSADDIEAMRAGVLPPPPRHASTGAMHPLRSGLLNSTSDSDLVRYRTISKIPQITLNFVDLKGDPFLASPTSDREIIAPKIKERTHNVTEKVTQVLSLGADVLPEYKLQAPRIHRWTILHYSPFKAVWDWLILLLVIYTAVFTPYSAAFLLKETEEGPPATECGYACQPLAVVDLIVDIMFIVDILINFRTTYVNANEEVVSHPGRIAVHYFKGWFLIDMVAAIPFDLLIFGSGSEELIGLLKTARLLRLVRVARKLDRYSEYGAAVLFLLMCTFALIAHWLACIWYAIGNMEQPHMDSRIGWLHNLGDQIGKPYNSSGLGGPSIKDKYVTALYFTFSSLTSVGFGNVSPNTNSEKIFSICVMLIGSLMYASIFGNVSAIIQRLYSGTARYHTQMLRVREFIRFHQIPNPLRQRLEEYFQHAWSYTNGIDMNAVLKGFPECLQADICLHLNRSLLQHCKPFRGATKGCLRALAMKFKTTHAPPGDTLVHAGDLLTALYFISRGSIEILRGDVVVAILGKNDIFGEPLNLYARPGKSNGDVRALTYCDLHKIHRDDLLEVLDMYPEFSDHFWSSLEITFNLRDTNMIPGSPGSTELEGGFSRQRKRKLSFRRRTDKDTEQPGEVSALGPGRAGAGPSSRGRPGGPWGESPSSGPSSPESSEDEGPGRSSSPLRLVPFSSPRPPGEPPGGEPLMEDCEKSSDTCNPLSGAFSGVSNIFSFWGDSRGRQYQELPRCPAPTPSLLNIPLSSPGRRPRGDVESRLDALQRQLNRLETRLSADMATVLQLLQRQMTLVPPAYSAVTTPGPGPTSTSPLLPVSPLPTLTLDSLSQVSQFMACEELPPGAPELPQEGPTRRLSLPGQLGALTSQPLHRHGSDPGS", "experiment": "primary screen, population patch clamp on CHO cells stably expressing hERG", "units": {"hERG current change (%, negative = inhibition) at 10uM": "%"}, "values": [
      {"smiles": "O=C(NCCCn1ccnc1)C(=O)NCC1OCCN1S(=O)(=O)c1cc(F)ccc1F", "note": "(stereo not shown)", "hERG current change (%, negative = inhibition) at 10uM": -3.48},
      {"smiles": "COc1cc(-c2nnc(COC(=O)c3cc(C)no3)o2)cc(OC)c1OC", "hERG current change (%, negative = inhibition) at 10uM": 10.5},
      {"smiles": "O=C(NCCN1C(=O)S/C(=C/c2cccnc2)C1=O)c1cccs1", "hERG current change (%, negative = inhibition) at 10uM": -17.2},
      {"smiles": "Cc1cccc(NC(=O)CSc2nnc(CSc3nc(C)cc(C)n3)o2)c1", "hERG current change (%, negative = inhibition) at 10uM": 12},
      {"smiles": "Cc1cccc(C2CC(c3ccccc3)Nc3ncnn32)c1", "note": "(stereo not shown)", "hERG current change (%, negative = inhibition) at 10uM": -18.1},
      {"smiles": "COc1ccc(CNC(=O)CCNS(=O)(=O)c2ccc(C)cc2)cc1", "hERG current change (%, negative = inhibition) at 10uM": -11.6},
      {"smiles": "COC(=O)C1=C(c2ccc(S(C)(=O)=O)cc2)C[C@@H]2CC[C@H]1N2C(=O)NCC1CC1", "hERG current change (%, negative = inhibition) at 10uM": -10},
      {"smiles": "COc1ccc(/C=N/NC(=O)Cn2cnc3ccccc3c2=O)cc1", "hERG current change (%, negative = inhibition) at 10uM": 2.36},
      {"smiles": "CS(=O)(=O)c1ccc(NC(=O)CCN2C(=O)C3CCCCC3C2=O)cc1", "note": "(stereo not shown)", "hERG current change (%, negative = inhibition) at 10uM": -11.1},
      {"smiles": "CN(CC(=O)Nc1ccccc1C(=O)N1CCCC1)S(=O)(=O)c1ccc(Br)cc1", "hERG current change (%, negative = inhibition) at 10uM": -31.4},
      {"smiles": "Cc1cccc(C)c1OC(=O)CN1C(=O)c2ccccc2C1=O", "hERG current change (%, negative = inhibition) at 10uM": 20.7},
      {"smiles": "COc1ccc(CNC(=O)COC(=O)CC(NC(N)=O)c2ccc(Cl)cc2)cc1OC", "note": "(stereo not shown)", "hERG current change (%, negative = inhibition) at 10uM": 1.27},
      {"smiles": "O=C1C=C(c2ccccc2)C[C@H](c2cccs2)[C@H]1n1nnc([N+](=O)[O-])n1", "hERG current change (%, negative = inhibition) at 10uM": -19.8},
      {"smiles": "Cc1c(C(=O)c2ccccc2C(=O)O)sc2ccccc12", "hERG current change (%, negative = inhibition) at 10uM": 15},
      {"smiles": "CC1=CC(c2ccc(Cl)cc2)n2nc(NC(=O)c3ccccc3)nc2N1", "note": "(stereo not shown)", "hERG current change (%, negative = inhibition) at 10uM": -39.8},
      {"smiles": "Cc1nnc(NC(=O)C2CC(=O)N(Cc3ccccc3)C2)s1", "note": "(stereo not shown)", "hERG current change (%, negative = inhibition) at 10uM": 8.96},
      {"smiles": "CCC(=O)N1C(=O)CCN(C(C)=O)c2ccccc21", "hERG current change (%, negative = inhibition) at 10uM": 6.48},
      {"smiles": "O=C(Nc1ccc(N2CCOCC2)c(Cl)c1)c1ccco1", "hERG current change (%, negative = inhibition) at 10uM": -3.16},
      {"smiles": "COC(=O)[C@@H]1C[C@]2(C(=O)O)c3ccccc3N(OOSc3ccccc3)[C@@H]2N1C(=O)OC", "hERG current change (%, negative = inhibition) at 10uM": 23.9},
      {"smiles": "Cc1ccc(CNC(=O)C2CCCN(S(=O)(=O)c3cnc[nH]3)C2)cc1", "note": "(stereo not shown)", "hERG current change (%, negative = inhibition) at 10uM": 4.46},
      {"smiles": "Cc1ccc(OCC(=O)N(Cc2ccc(C)o2)C2CCS(=O)(=O)C2)cc1", "note": "(stereo not shown)", "hERG current change (%, negative = inhibition) at 10uM": -52.3},
      {"smiles": "O=C1CC(NS(=O)(=O)c2cccs2)CN1c1cccc(F)c1", "note": "(stereo not shown)", "hERG current change (%, negative = inhibition) at 10uM": -6.29},
      {"smiles": "CCOC(=O)c1cc(-c2csc(Nc3c(C)cc(C)cc3C)n2)on1", "hERG current change (%, negative = inhibition) at 10uM": 23.4},
      {"smiles": "CCSc1nc2c(c(=O)n1-c1ccc(F)cc1)SCC2", "hERG current change (%, negative = inhibition) at 10uM": -4.12},
      {"smiles": "O=C(O)C=C1C2CC3CC(C2)CC1C3", "hERG current change (%, negative = inhibition) at 10uM": -4.71},
      {"smiles": "COc1ccc(-c2cc(-c3cccs3)nc3sc(C#N)c(N)c23)cc1", "hERG current change (%, negative = inhibition) at 10uM": -0.398},
      {"smiles": "CCOC(=O)C1=C(C)NC(C)=C(C(=O)OCC)C1c1nc2ccccc2[nH]1", "hERG current change (%, negative = inhibition) at 10uM": 14.3},
      {"smiles": "O=c1[nH]cnc2ccc([N+](=O)[O-])cc12", "hERG current change (%, negative = inhibition) at 10uM": -2.77},
      {"smiles": "OCCSc1nc(-c2cccnc2)nc2ccccc12", "hERG current change (%, negative = inhibition) at 10uM": -15.1},
      {"smiles": "COC(=O)c1c(-n2c(C)cc(C=O)c2C)sc2c1CCCC2", "hERG current change (%, negative = inhibition) at 10uM": 6.81},
      {"smiles": "Cc1cc(C)c(S(=O)(=O)c2cc(F)ccc2C)c(Cl)n1", "hERG current change (%, negative = inhibition) at 10uM": 7.31},
      {"smiles": "COc1ccc(/C(N)=N/OC(=O)CCCc2ccccc2)cc1OC", "hERG current change (%, negative = inhibition) at 10uM": -7.19},
      {"smiles": "O=P(c1ccccc1)(c1ccccc1)c1nc2ccccc2s1", "hERG current change (%, negative = inhibition) at 10uM": -15.8},
      {"smiles": "Br.COc1ccc(/C(O)=C/Sc2nnc(Cc3ccccc3)o2)cc1", "hERG current change (%, negative = inhibition) at 10uM": 4.42},
      {"smiles": "CCOc1ccc(C(C)=O)cc1CN1C(=O)c2ccccc2S1(=O)=O", "hERG current change (%, negative = inhibition) at 10uM": 9.63},
      {"smiles": "Cc1ccc(C)c(NC(=S)NCCCN2CCOCC2)c1", "hERG current change (%, negative = inhibition) at 10uM": 4.83},
      {"smiles": "Cc1ccc(C(=O)Nc2ccc(Cl)cn2)cc1", "hERG current change (%, negative = inhibition) at 10uM": -3.84},
      {"smiles": "Cc1cc(NC(=O)CSc2cn(C)c3ccccc23)no1", "hERG current change (%, negative = inhibition) at 10uM": -4.36},
      {"smiles": "CC(C(=O)N1CCN(Cc2ccc3c(c2)OCO3)CC1)c1ccc([N+](=O)[O-])cc1", "note": "(stereo not shown)", "hERG current change (%, negative = inhibition) at 10uM": -34.9},
      {"smiles": "Cc1cnc(C(=O)OC(C)C(=O)NCc2ccccc2)cn1", "note": "(stereo not shown)", "hERG current change (%, negative = inhibition) at 10uM": 3.99},
      {"smiles": "C/C(N)=C(/C#N)C(=O)COC(=O)CSc1ccccc1", "hERG current change (%, negative = inhibition) at 10uM": 15.5},
      {"smiles": "CC(C)(C)OC(=O)N1CCC[C@H]1c1nnc(SCc2ccccc2Cl)o1", "hERG current change (%, negative = inhibition) at 10uM": -5.07},
      {"smiles": "NC(=O)Cn1nc([N+](=O)[O-])nc1Oc1ccccc1C(=O)N1CCOCC1", "hERG current change (%, negative = inhibition) at 10uM": 2.94},
      {"smiles": "CC(C)Oc1ccc(N2CC(C(=O)Nc3ccccn3)CC2=O)cc1", "note": "(stereo not shown)", "hERG current change (%, negative = inhibition) at 10uM": -34.8},
      {"smiles": "c1ccc(NCC2OCc3ccccc3CO2)cc1", "hERG current change (%, negative = inhibition) at 10uM": -8.61},
      {"smiles": "Cc1cc(NC(=O)c2cnn3cccnc23)no1", "hERG current change (%, negative = inhibition) at 10uM": -0.805},
      {"smiles": "COC(CNC(=O)CCc1c(C)nc2c(-c3ccccc3)c(C)nn2c1C)OC", "hERG current change (%, negative = inhibition) at 10uM": -4.2},
      {"smiles": "O=C(NC1CCCCC1)C(c1cccs1)N(CC1CCCO1)C(=O)c1csnn1", "note": "(stereo not shown)", "hERG current change (%, negative = inhibition) at 10uM": -16.1},
      {"smiles": "O=C(O)c1ccc2[nH]c3c(c2c1)CSCC3", "hERG current change (%, negative = inhibition) at 10uM": 13.3},
      {"smiles": "COc1ccc(-c2nc(Cc3ccc(Cl)cc3)no2)cc1OC", "hERG current change (%, negative = inhibition) at 10uM": 13.8},
      {"smiles": "Cc1nnc(SCC(=O)Nc2sc3c(c2C#N)CCCC3)[nH]c1=O", "hERG current change (%, negative = inhibition) at 10uM": 6.79},
      {"smiles": "CCOc1nc2c(c(-c3cccs3)c1C#N)Cc1ccccc1-2", "hERG current change (%, negative = inhibition) at 10uM": 18.1},
      {"smiles": "COC(=O)c1ccc(CSc2nnc(Nc3ccc(OC)cc3)s2)o1", "hERG current change (%, negative = inhibition) at 10uM": -8.85},
      {"smiles": "Cc1c(C(=O)O)oc2c1C(=O)CC(C)(C)C2", "hERG current change (%, negative = inhibition) at 10uM": -13.2},
      {"smiles": "Cc1ccc2nc(N(CCN3CCOCC3)C(=O)CCS(=O)(=O)c3ccccc3)sc2c1.Cl", "hERG current change (%, negative = inhibition) at 10uM": 5.37},
      {"smiles": "Cc1nc(SCC(=O)Nc2cccc(Cl)c2)n[nH]1", "hERG current change (%, negative = inhibition) at 10uM": 6.87},
      {"smiles": "CCOC(=O)COc1ccc2nsnc2c1", "hERG current change (%, negative = inhibition) at 10uM": 21.3},
      {"smiles": "O=C(CSc1nc2ccccc2nc1SCC(=O)N1CCCCC1)N1CCCCC1", "hERG current change (%, negative = inhibition) at 10uM": -6.99}
    ]}
  ]
}
